# The supplement of paper PMC8728848
# Some of the results follow.
# What was measured:
# Assay in all cases: glycan array binding signal (z-score within array); higher = stronger binding
# Settings in all cases: glycan notation: IUPAC condensed, linker removed
# Glc(a1-4)Glc = biological target: Glc(a1-4)Glc
# Summary of the method: (§1)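 Columns mapping to the same glycan were averaged after glycan names were converted to IUPAC-condensed notation. The data come from 3228 arrays in the Consortium for Functional Glycomics database, limited to those with an available protein sequence. Binding is reported as a within-array Z-score averaged across arrays of one protein sequence and across linkers.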
# Glc(a1-6)Glc(a1-6)Glc = biological target: Glc(a1-6)Glc(a1-6)Glc
# Summary of the method: as §1
# Glc(b1-4)Glc = biological target: Glc(b1-4)Glc
# Summary of the method: as §1
# Glc(b1-6)Glc = biological target: Glc(b1-6)Glc
# Summary of the method: as §1
# GlcA(b1-3)Gal = biological target: GlcA(b1-3)Gal
# Summary of the method: as §1
# GlcA(b1-3)GlcNAc = biological target: GlcA(b1-3)GlcNAc
# Summary of the method: as §1
# GlcA(b1-6)Gal = biological target: GlcA(b1-6)Gal
# Summary of the method: as §1
# [1] = biological target: GlcNAc(a1-3)Gal(b1-4)GlcNAc
# Summary of the method: as §1
# [2] = biological target: GlcNAc(a1-4)Gal(b1-3)GlcNAc
# Summary of the method: as §1
# [3] = biological target: GlcNAc(a1-4)Gal(b1-4)GalNAc
# Summary of the method: as §1
# [4] = biological target: GlcNAc(a1-4)Gal(b1-4)GlcNAc
# Summary of the method: as §1
# [5] = biological target: GlcNAc(a1-4)Gal(b1-4)GlcNAc(b1-3)Gal(b1-4)Glc
# Summary of the method: as §1
# [6] = biological target: GlcNAc(a1-4)Gal(b1-4)GlcNAc(b1-3)Gal(b1-4)GlcNAc
# Summary of the method: as §1
# [7] = biological target: GlcNAc(a1-4)Gal(b1-4)GlcNAc(b1-3)Gal(b1-4)GlcNAc(b1-3)Gal(b1-4)GlcNAc
# Summary of the method: as §1
# [8] = biological target: GlcNAc(a1-4)Gal(b1-4)GlcNAc(b1-3)Gal(b1-4)[Fuc(a1-3)]GlcNAc(b1-3)Gal(b1-4)[Fuc(a1-3)]GlcNAc
# Summary of the method: as §1
# [9] = biological target: GlcNAc(a1-6)Gal(b1-4)GlcNAc
# Summary of the method: as §1
# [10] = biological target: GlcNAc(b1-2)Gal(b1-3)GalNAc
# Summary of the method: as §1
# [11] = biological target: GlcNAc(b1-2)Man(a1-3)[GlcNAc(b1-2)Man(a1-6)]Man(b1-4)GlcNAc(b1-4)GlcNAc
# Summary of the method: as §1
# [12] = biological target: GlcNAc(b1-2)Man(a1-3)[GlcNAc(b1-2)Man(a1-6)]Man(b1-4)GlcNAc(b1-4)[Fuc(a1-6)]GlcNAc
# Summary of the method: as §1
# GlcNAc(b1-3)Gal = biological target: GlcNAc(b1-3)Gal
# Summary of the method: as §1
# [13] = biological target: GlcNAc(b1-3)Gal(b1-3)GalNAc
# Summary of the method: as §1
# GlcNAc(b1-3)Gal(b1-4)Glc = biological target: GlcNAc(b1-3)Gal(b1-4)Glc
# Summary of the method: as §1
# [14] = biological target: GlcNAc(b1-3)Gal(b1-4)GlcNAc
# Summary of the method: as §1
# [15] = biological target: GlcNAc(b1-3)Gal(b1-4)GlcNAc(b1-3)Gal(b1-4)GlcNAc
# Summary of the method: as §1
# GlcNAc(b1-3)GalNAc = biological target: GlcNAc(b1-3)GalNAc
# Summary of the method: as §1
# GlcNAc(b1-3)Man = biological target: GlcNAc(b1-3)Man
# Summary of the method: as §1
# [16] = biological target: GlcNAc(b1-3)[GlcNAc(b1-4)][GlcNAc(b1-6)]GlcNAc
# Summary of the method: as §1
# [17] = biological target: GlcNAc(b1-3)[GlcNAc(b1-6)]Gal(b1-4)GlcNAc
# Summary of the method: as §1
# [18] = biological target: GlcNAc(b1-3)[GlcNAc(b1-6)]GalNAc
# Summary of the method: as §1
# [19] = biological target: GlcNAc(b1-4)Gal(b1-4)GlcNAc
# Summary of the method: as §1
binder,measurement,setting,value
"GALT1 115 D492A (Arabidopsis thaliana), Q8L7F9 (protein) DPMRGSHHHHHHGMASMTGGQQMGRDLYDDDDKSRLQKPYITAAASVVVTPNTTLPMEWLRITLPDFMKEARNTQEAISGDDIAVVSGLFVEQNVSKEEREPLLTWNRLESLVDNAQSLVNGVDAIKEAGIVWESLVSAVEAKKLVDVNENQTRKGKEELCPQFLSKMNATEADGSSLKLQIPCGLTQGSSITVIGIPDGLVGSFRIDLTGQPLPGEPDPPIIVHYNVRLLGDKSTEDPVIVQNSWTASQDWGAEERCPKFDPDMNKKVDDLDECNKMVGGEINRTSSTSLQSNTSRGVPVAREASKHEKYFPFKQGFLSVATLRVGTEGMQMTVDGKHITSFAFRDTLEPWLVSEIRITGDFRLISILASGLPTSEESEHVVDLEALKSPTLSPLRPLDLVIGVFSTANNFKRRMAVRRTWMQYDDVRSGRVAVRFFVGLHKSPLVNLELWNEARTYGDVQLMPFVDYYSLISWKTLAICIFGTEVDSAKFIMKTDDAAFVRVDEVLLSLSMTNNTRGLIYGLINSDSQPIRNPDSKWYISYEEWPEEKYPPWAHGPGYIVSRDIAESVGKLFKEGNLKMFKLEDVAMGIWIAELTKHGLEPHYENDGRIISDGCKDGYVVAHYQSPAEMTCLWRKYQETKRSLCCREW",glycan array binding signal (z-score),Glc(a1-4)Glc,1.21
same,glycan array binding signal (z-score),Glc(a1-6)Glc(a1-6)Glc,-0.335
same,glycan array binding signal (z-score),Glc(b1-4)Glc,-0.085
same,glycan array binding signal (z-score),Glc(b1-6)Glc,-0.244
same,glycan array binding signal (z-score),GlcA(b1-3)Gal,-0.053
same,glycan array binding signal (z-score),GlcA(b1-3)GlcNAc,-0.206
same,glycan array binding signal (z-score),GlcA(b1-6)Gal,-0.271
same,glycan array binding signal (z-score),[1],0.007
same,glycan array binding signal (z-score),[2],0.356
same,glycan array binding signal (z-score),[3],0.654
same,glycan array binding signal (z-score),[4],-0.069
same,glycan array binding signal (z-score),[5],0.145
same,glycan array binding signal (z-score),[6],0.061
same,glycan array binding signal (z-score),[7],-0.503
same,glycan array binding signal (z-score),[8],2.05
same,glycan array binding signal (z-score),[9],-0.292
same,glycan array binding signal (z-score),[10],-0.037
same,glycan array binding signal (z-score),[11],-0.23
same,glycan array binding signal (z-score),[12],2.9
same,glycan array binding signal (z-score),GlcNAc(b1-3)Gal,-0.543
same,glycan array binding signal (z-score),[13],1.5
same,glycan array binding signal (z-score),GlcNAc(b1-3)Gal(b1-4)Glc,-0.095
same,glycan array binding signal (z-score),[14],-0.176
same,glycan array binding signal (z-score),[15],-0.165
same,glycan array binding signal (z-score),GlcNAc(b1-3)GalNAc,0.045
same,glycan array binding signal (z-score),GlcNAc(b1-3)Man,-0.193
same,glycan array binding signal (z-score),[16],-0.397
same,glycan array binding signal (z-score),[17],0.997
same,glycan array binding signal (z-score),[18],0.43
same,glycan array binding signal (z-score),[19],-0.482
